According to PubChem BioAssay (NCATS):
Values joined by “and” are separate entries in the source; they are usually repeats but may differ in a detail not shown here. Equal values may be shown once. The shares of active, inactive and inconclusive entries below differ from those in the screen. A potency beside an inconclusive call is a rough fit, not a confirmed value. Some compounds were tested as several samples or in several runs, with calls that do not always agree. Active and inactive are the calls of the source. Calls follow the shape of the dose curve; as a rule, active = well fitted inhibition curve with a large enough effect; inconclusive = small, poorly fitted or top-dose-only effect; inactive = flat fitted curve, though single readings scatter.

Test: Primary qHTS for inhibitors of nuclear receptor binding SET domain protein 2 (NSD2) in an isogenic RCH-ACV NSD2 p.E1099K mutant (9B) (AID 1645876); also: nearly all actives have a fitted effect of over 70% in size
Conditions: RCH-ACV (leukaemia line) NSD2 E1099K (9B) viability, CellTiter-Glo, 72 h; series mostly up to 44.9 µM
Potency is read from the fitted curve at half-maximal effect; tags tell the direction and shape of the fitted curve.

Structure (SMILES)	Potency
CNS(=O)(=O)CCc1ccc2[nH]cc(C3CCN(C)CC3)c2c1	inactive
c1ccc2[nH]c(-c3cscn3)nc2c1	inconclusive: 18.6 µM [inhibitor, partial curve]
OCc1cc(C(O)CNCCCCCCOCCCCc2ccccc2)ccc1O (stereo not given)	inconclusive: 33.5 µM [inhibitor, single point]
c1ccc2sc(SN3CCOCC3)nc2c1	inactive
CCCCc1oc2ccccc2c1C(=O)c1cc(I)c(OCCN(CC)CC)c(I)c1	inconclusive: 29.9 µM [inhibitor, single point] and inconclusive: 29.5 µM [inhibitor, single point]
O=C(NCC1CCCCN1)c1cc(OCC(F)(F)F)ccc1OCC(F)(F)F (stereo not given)	inconclusive: 33.5 µM [inhibitor, single point]
CC(C)CNc1ccnc(NCc2csc(-c3ccccc3)n2)n1	active: 5.9 µM
CC1(C)NC(=O)N(c2ccc([N+](=O)[O-])c(C(F)(F)F)c2)C1=O	inactive
CS(=O)(=O)N(Cc1ccco1)CC(O)Cn1c2ccccc2c2ccccc21 (stereo not given)	inconclusive: 29 µM [inhibitor, single point] and inconclusive: 18.6 µM [inhibitor, partial curve]
CC(=O)OCC(=O)[C@@]1(O)CC[C@H]2[C@@H]3CCC4=CC(=O)C=C[C@]4(C)[C@H]3[C@@H](O)C[C@@]21C	inconclusive: 299 nM [inhibitor, full curve, poor fit] and inconclusive: 817 nM [inhibitor, full curve]
CCN(CC)c1ccc(C(=C2C=CC(=[N+](CC)CC)C=C2)c2cc(S(=O)(=O)O)ccc2S(=O)(=O)[O-])cc1	inconclusive: 15 µM [inhibitor, partial curve]
O=C(O)[C@@H](c1ccc(OCc2ccc3ccccc3n2)cc1)C1CCCC1	inactive
O=S1(=O)c2cccc3cccc(c23)N1CCCN1CCN(c2ccc(F)cc2)CC1	inactive
O=Cc1ccc(O)c(O)c1O	inconclusive: 29.9 µM [inhibitor, single point]
CCCCCCCCCCCCOCCOCCOCCOCCOCCOCCOCCOCCOCCO	inconclusive: 11.9 µM [inhibitor, partial curve]
C[C@H](NC(=O)C(=O)Nc1ccccc1C(C)(C)C)C(=O)N[C@@H](CC(=O)O)C(=O)COc1c(F)c(F)cc(F)c1F	inconclusive: 3.32 µM [inhibitor, full curve, poor fit]
Cc1cnc(Nc2ccc(OCCN3CCCC3)cc2)nc1Nc1cccc(S(=O)(=O)NC(C)(C)C)c1	active: 1.83 µM and active: 2.35 µM
CCCS(=O)c1ccc2nc(NC(=O)OC)[nH]c2c1 (stereo not given)	inconclusive: 26.3 µM [inhibitor, single point]
Cc1c(Nc2ncccc2C(=O)O)cccc1C(F)(F)F	inconclusive: 23.7 µM [inhibitor, partial curve, poor fit]
OC[C@@H](O)[C@@H](O)[C@H](O)[C@H](O)CO	inconclusive: 16.8 µM [inhibitor, partial curve, poor fit]
CN1CC(=O)N/C1=N/C(=O)Nc1cccc(Cl)c1	inactive
CC(=O)Oc1cccc2c1C(=O)c1c(OC(C)=O)cc(C(=O)O)cc1C2=O	inactive
COc1cc(Oc2ccnc3cc(OC)c(OC)cc23)ccc1NC(=O)NC(C)c1nccs1 (stereo not given)	inactive and active: 13.2 µM
CCN1/C(=C/C=C/c2sc3ccccc3[n+]2CC)Sc2ccccc21	inconclusive: 0.0259 µM [inhibitor, full curve, poor fit]
Nc1ccc(-c2ccc3ncc4ccc(=O)n(-c5cccc(C(F)(F)F)c5)c4c3c2)cn1	active: 14.8 nM and active: 23.1 nM
O=C(NOCC1CC1)c1ccc(F)c(F)c1Nc1ccc(I)cc1Cl	inconclusive: 5.9 µM [inhibitor, full curve]
OC(CN1CCC(Cc2ccc(F)cc2)CC1)c1ccc(Cl)cc1 (stereo not given)	inactive
CNCCCCOc1ccccc1Cc1ccccc1	inconclusive: 23.7 µM [inhibitor, single point]
Oc1ccc(C2CCN(c3ccnc4ccccc34)CC2)cc1O	active: 13.2 µM
COc1cc(NC(C)CCCN)c2ncccc2c1 (stereo not given)	active: 6.68 µM
